US20150239991A1 (GLENMARK PHARMACEUTICALS S A, published 2015)

Target: T1, human FcRn (human, UniProt P55899 fragment; P61769 fragment)
T1 construct: range 24-297;range 21-119; Alpha chain non-covalently associated with beta2-microglobulin; used as analyte at pH 6.0; also called human neonatal Fc receptor; soluble form of the extracellular region of the human FcRn
Experiment: SPR on human FcRn at pH 6.0, steady state KD expressed as ratio to the unmodified IGHG1 control

KD ratio (IGHG1/mutant): 0.45
B1: anti-hCD19 homo-dimeric immunoglobulin with the M428G substitution (antibody, human IgG1, kappa)
heavy: QVQLVQSGGGVVQPGRSLRLSCAASGVSLPDYGVSWVRQAPGKGLEWVAVIWGSETTYYNSALKSRFTISRDNSKNTLYLQMNSLRAEDTAVYYCAKHYYYGGSYAMDYWGQGTLVTVSS[human IgG1 constant region with M428G (EU numbers) not given here]
light: DIQMTQSPSSLSASVGDRVTITCRASQDISKYLNWYQQKPGKAIKLLIYHTSRLHSGVPSRFSGSGSGTDFTLTISSLQPEDFATYYCQQGATLPYTFGPGTKVDIKRTVAAPSVFIFPPSDEQLKSGTASVVCLLNNFYPREAKVQWKVDNALQSGNSQESVTEQDSKDSTYSLSSTLTLSKADYEKHKVYACEVTHQGLSSPVTKSFNRGEC
notes: copies: 2 + 2
